# According to the supplement of paper PMC8728848:
# The list shows a part of the results.
# B1: AAL (Aleuria aurantia) (protein)
# chain: MPTEFLYTSKIAAISWAATGGRQQRVYFQDLNGKIREAQRGGDNPWTGGSSQNVIGEAKLFSPLAAVTWKSAQGIQIRVYCVNKDNILSEFVYDGSKWITGQLGSVGVKVGSNSKLAALQWGGSESAPPNIRVYYQKSNGSGSSIHEYVWSGKWTAGASFGSTVPGTGIGATAIGPGRLRIYYQATDNKIREHCWDSNSWYVGGFSASASAGVSIAAISWGSTPQIRVYWQKGREELYEAAYGGSWNTPGQIKDASRPTPSLPDTFIAANSSGNIDISVFFQASGVSLQQWQWISGKGWSIGAVVPTGTPAGW
# Key:
# Experiment in all cases: glycan array binding signal (z-score within array); higher = stronger binding
# Conditions in all cases: glycan notation: IUPAC condensed, linker removed; mutation: N224Q
# [1] = target: Gal(b1-3)GlcNAc(b1-3)Gal(b1-4)GlcNAc(b1-2)Man(a1-3)[Gal(b1-3)GlcNAc(b1-3)Gal(b1-4)GlcNAc(b1-2)Man(a1-6)]Man(b1-4)GlcNAc(b1-4)GlcNAc
# In short: (§1)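 The Consortium for Functional Glycomics database supplied 3228 glycan arrays, of which those lacking an available protein sequence were dropped. The binding signal, a within-array Z-score, was averaged across arrays of the same protein sequence and across linkers. Negative scores can be read as non-binding.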
# [2] = target: Gal(b1-3)GlcNAc(b1-3)Gal(b1-4)GlcNAc(b1-2)[Gal(b1-3)GlcNAc(b1-3)Gal(b1-4)GlcNAc(b1-6)]Man(a1-6)[Gal(b1-3)GlcNAc(b1-3)Gal(b1-4)GlcNAc(b1-2)Man(a1-3)]Man(b1-4)GlcNAc(b1-4)[Fuc(a1-6)]GlcNAc
# In short: as §1
# [3] = target: Gal(b1-3)GlcNAc(b1-3)Gal(b1-4)GlcNAc(b1-3)Gal(b1-4)GlcNAc(b1-2)[Gal(b1-3)GlcNAc(b1-3)Gal(b1-4)GlcNAc(b1-3)Gal(b1-4)GlcNAc(b1-6)]Man(a1-6)[Gal(b1-3)GlcNAc(b1-3)Gal(b1-4)GlcNAc(b1-3)Gal(b1-4)GlcNAc(b1-2)Man(a1-3)]Man(b1-4)GlcNAc(b1-4)[Fuc(a1-6)]GlcNAc
# In short: as §1
# [4] = target: Gal(b1-3)GlcNAc(b1-3)Gal(b1-4)GlcNAc(b1-6)[Gal(b1-3)GlcNAc(b1-3)]Gal(b1-4)Glc
# In short: as §1
# [5] = target: Gal(b1-3)GlcNAc(b1-3)Gal(b1-4)[Fuc(a1-3)]GlcNAc
# In short: as §1
# [6] = target: Gal(b1-3)GlcNAc(b1-3)Gal(b1-4)[Fuc(a1-3)]GlcNAc(b1-6)[Gal(b1-3)GlcNAc(b1-3)]Gal(b1-4)Glc
# In short: as §1
# [7] = target: Gal(b1-3)GlcNAc(b1-3)GalNAc
# In short: as §1
# [8] = target: Gal(b1-3)GlcNAc(b1-6)Gal(b1-4)GlcNAc
# In short: as §1
# [9] = target: Gal(b1-3)GlcNAc(b1-6)GalNAc
# In short: as §1
# [10] = target: Gal(b1-3)GlcNAc(b1-6)[Gal(b1-3)]GalNAc
# In short: as §1
# [11] = target: Gal(b1-3)GlcNAc6S
# In short: as §1
# [12] = target: Gal(b1-3)[Fuc(a1-4)]GlcNAc
# In short: as §1
# [13] = target: Gal(b1-3)[Fuc(a1-4)]GlcNAc(b1-2)Man
# In short: as §1
# [14] = target: Gal(b1-3)[Fuc(a1-4)]GlcNAc(b1-2)Man(a1-3)[Gal(b1-3)[Fuc(a1-4)]GlcNAc(b1-2)Man(a1-6)]Man(b1-4)GlcNAc(b1-4)[Fuc(a1-6)]GlcNAc
# In short: as §1
# [15] = target: Gal(b1-3)[Fuc(a1-4)]GlcNAc(b1-3)Gal(b1-3)[Fuc(a1-4)]GlcNAc
# In short: as §1
# [16] = target: Gal(b1-3)[Fuc(a1-4)]GlcNAc(b1-3)Gal(b1-4)[Fuc(a1-3)]GlcNAc
# In short: as §1
# [17] = target: Gal(b1-3)[Fuc(a1-4)]GlcNAc(b1-6)GalNAc
# In short: as §1
# [18] = target: Gal(b1-3)[GlcNAc(b1-6)]GalNAc
# In short: as §1
# [19] = target: Gal(b1-3)[Neu5Ac(a2-6)]GalNAc
# In short: as §1
# [20] = target: Gal(b1-3)[Neu5Ac(a2-6)]GlcNAc(b1-4)Gal(b1-4)Glc
# In short: as §1
# [21] = target: Gal(b1-3)[Neu5Ac(b2-6)]GalNAc
# In short: as §1
# [22] = target: Gal(b1-4)Gal
# In short: as §1
# [23] = target: Gal(b1-4)GalNAc(a1-3)[Fuc(a1-2)]Gal(b1-4)GlcNAc
# In short: as §1
# [24] = target: Gal(b1-4)GalNAc(b1-3)[Fuc(a1-2)]Gal(b1-4)GlcNAc
# In short: as §1
# [25] = target: Gal(b1-4)Glc
# In short: as §1
# [26] = target: Gal(b1-4)Glc6S
# In short: as §1
# [27] = target: Gal(b1-4)GlcNAc
# In short: as §1
# [28] = target: Gal(b1-4)GlcNAc(a1-6)Gal(b1-4)GlcNAc
# In short: as §1
# [29] = target: Gal(b1-4)GlcNAc(b1-2)Man
# In short: as §1
# [30] = target: Gal(b1-4)GlcNAc(b1-2)Man(a1-3)Man(b1-4)GlcNAc(b1-4)GlcNAc
# In short: as §1
# [31] = target: Gal(b1-4)GlcNAc(b1-2)Man(a1-3)[Gal(b1-4)GlcNAc(b1-2)Man(a1-6)]Man(b1-4)GlcNAc(b1-4)GlcNAc
# In short: as §1
# [32] = target: Gal(b1-4)GlcNAc(b1-2)Man(a1-3)[Gal(b1-4)GlcNAc(b1-2)Man(a1-6)]Man(b1-4)GlcNAc(b1-4)[Fuc(a1-6)]GlcNAc
# In short: as §1
# [33] = target: Gal(b1-4)GlcNAc(b1-2)Man(a1-3)[Gal(b1-4)GlcNAc(b1-2)Man(a1-6)][Gal(b1-4)GlcNAc(b1-4)]Man(b1-4)GlcNAc(b1-4)[Fuc(a1-6)]GlcNAc
# In short: as §1
# [34] = target: Gal(b1-4)GlcNAc(b1-2)Man(a1-3)[Gal(b1-4)GlcNAc(b1-2)Man(a1-6)][GlcNAc(b1-4)]Man(b1-4)GlcNAc(b1-4)[Fuc(a1-6)]GlcNAc
# In short: as §1
# [35] = target: Gal(b1-4)GlcNAc(b1-2)Man(a1-3)[GlcNAc(b1-2)Man(a1-6)]Man(b1-4)GlcNAc(b1-4)GlcNAc
# In short: as §1
# [36] = target: Gal(b1-4)GlcNAc(b1-2)Man(a1-3)[GlcNAc(b1-4)][Gal(b1-4)GlcNAc(b1-2)Man(a1-6)]Man(b1-4)GlcNAc(b1-4)GlcNAc
# In short: as §1
# [37] = target: Gal(b1-4)GlcNAc(b1-2)Man(a1-3)[Man(a1-6)]Man(b1-4)GlcNAc(b1-4)GlcNAc
# In short: as §1
# [38] = target: Gal(b1-4)GlcNAc(b1-2)Man(a1-6)Man(b1-4)GlcNAc(b1-4)GlcNAc
# In short: as §1
binder,measurement,setting,value
B1,glycan array binding signal (z-score),[1],-0.297
same,glycan array binding signal (z-score),[2],-0.181
same,glycan array binding signal (z-score),[3],-0.072
same,glycan array binding signal (z-score),[4],-0.295
same,glycan array binding signal (z-score),[5],0.207
same,glycan array binding signal (z-score),[6],-0.308
same,glycan array binding signal (z-score),[7],-0.313
same,glycan array binding signal (z-score),[8],-0.317
same,glycan array binding signal (z-score),[9],-0.303
same,glycan array binding signal (z-score),[10],-0.313
same,glycan array binding signal (z-score),[11],-0.309
same,glycan array binding signal (z-score),[12],0.751
same,glycan array binding signal (z-score),[13],-0.154
same,glycan array binding signal (z-score),[14],-0.261
same,glycan array binding signal (z-score),[15],0.798
same,glycan array binding signal (z-score),[16],1
same,glycan array binding signal (z-score),[17],-0.288
same,glycan array binding signal (z-score),[18],-0.32
same,glycan array binding signal (z-score),[19],-0.312
same,glycan array binding signal (z-score),[20],-0.318
same,glycan array binding signal (z-score),[21],-0.316
same,glycan array binding signal (z-score),[22],-0.313
same,glycan array binding signal (z-score),[23],-0.307
same,glycan array binding signal (z-score),[24],-0.315
same,glycan array binding signal (z-score),[25],-0.315
same,glycan array binding signal (z-score),[26],-0.318
same,glycan array binding signal (z-score),[27],-0.324
same,glycan array binding signal (z-score),[28],-0.332
same,glycan array binding signal (z-score),[29],-0.297
same,glycan array binding signal (z-score),[30],-0.307
same,glycan array binding signal (z-score),[31],-0.316
same,glycan array binding signal (z-score),[32],-0.216
same,glycan array binding signal (z-score),[33],0.102
same,glycan array binding signal (z-score),[34],0.102
same,glycan array binding signal (z-score),[35],-0.316
same,glycan array binding signal (z-score),[36],-0.308
same,glycan array binding signal (z-score),[37],-0.29
same,glycan array binding signal (z-score),[38],-0.318
